Measurements: article PMC12820563, “FoxP3 forms a head-to-head dimer in vivo and stabilizes its multimerization on adjacent microsatellites”
The list shows a part of the results.

target: T1, MBP-FoxP1dN (Mus musculus, UniProt P58462 326-579); assay: PD-seq (MBP pull-down with sequencing); 20 mM Tris-HCl pH 7.5, 100 mM NaCl, 1.5 mM MgCl2, 0.4 uM protein, 0.1 uM dsDNA library, 30 min, room temperature, amylose pull-down; high values mean tight binding; conditions: protein: recombinant; tags: His6-MBP; chain copies: 2; dsDNA, one strand shown
T1 sequence: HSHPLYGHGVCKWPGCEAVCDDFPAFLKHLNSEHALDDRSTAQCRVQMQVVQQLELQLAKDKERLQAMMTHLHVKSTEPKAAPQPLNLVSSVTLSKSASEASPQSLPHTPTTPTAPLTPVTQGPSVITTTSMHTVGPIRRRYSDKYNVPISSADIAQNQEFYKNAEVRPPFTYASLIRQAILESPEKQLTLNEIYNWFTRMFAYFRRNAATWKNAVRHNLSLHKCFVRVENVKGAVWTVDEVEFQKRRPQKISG
In short: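 The N-terminus-lacking fragment of mouse FoxP3 or FoxP1 carried a His6-MBP tag and was expressed in E. coli. At 0.4 µM it was incubated with 0.1 µM Klenow-filled degenerate double-stranded DNA library for 30 min at room temperature in Tris pH 7.5 buffer with NaCl and MgCl2, and complexes were caught on amylose resin, washed three times, released with proteinase K, PCR-barcoded and Illumina-sequenced. Binding is reads-per-million enrichment of pull-down over input with replicates pooled.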

| Sequence | binding signal |
| --- | --- |
| GATGATTGTTCTCCCAGCTGATGAATTCGAACGCTCGAGTAAACAAATTTTCCTAATCTTTCTGTTCAAGCGCCATCTAC | 0.872 RPM ratio (pull-down/input) |
| GATGATTGTTCTCCCAGCTGATGAATTAAGGTCCTCGAGTAAACAAATTTTCCTAATCTTTCTGTTCAAGCGCCATCTAC | 0.832 RPM ratio (pull-down/input) |
| GATGATTGTTCTCCCAGCTGATGAATTCCTGTGCTCGAGTAAACAAATTTTCCTAATCTTTCTGTTCAAGCGCCATCTAC | 0.908 RPM ratio (pull-down/input) |
| GATGATTGTTCTCCCAGCTGATGAATTCTCAAGCTCGAGTAAACAAATTTTCCTAATCTTTCTGTTCAAGCGCCATCTAC | 0.86 RPM ratio (pull-down/input) |
| GATGATTGTTCTCCCAGCTGATGAATTGTGGAATTCGAGTAAACAAATTTTCCTAATCTTTCTGTTCAAGCGCCATCTAC | 1.01 RPM ratio (pull-down/input) |
| GATGATTGTTCTCCCAGCTGATGAATTGCGAACGTCGAGTAAACAAATTTTCCTAATCTTTCTGTTCAAGCGCCATCTAC | 1.03 RPM ratio (pull-down/input) |
| GATGATTGTTCTCCCAGCTGATGAATTCGGACAGTCGAGTAAACAAATTTTCCTAATCTTTCTGTTCAAGCGCCATCTAC | 0.795 RPM ratio (pull-down/input) |
| GATGATTGTTCTCCCAGCTGATGAATTAGGAATATCGAGTAAACAAATTTTCCTAATCTTTCTGTTCAAGCGCCATCTAC | 1.07 RPM ratio (pull-down/input) |
| GATGATTGTTCTCCCAGCTGATGAATTCTGGGTATCGAGTAAACAAATTTTCCTAATCTTTCTGTTCAAGCGCCATCTAC | 0.839 RPM ratio (pull-down/input) |
| GATGATTGTTCTCCCAGCTGATGAATTGGGGATTTCGAGTAAACAAATTTTCCTAATCTTTCTGTTCAAGCGCCATCTAC | 0.909 RPM ratio (pull-down/input) |
| GATGATTGTTCTCCCAGCTGATGAATTGGAGCGGTCGAGTAAACAAATTTTCCTAATCTTTCTGTTCAAGCGCCATCTAC | 0.777 RPM ratio (pull-down/input) |
| GATGATTGTTCTCCCAGCTGATGAATTACTATACTCGAGTAAACAAATTTTCCTAATCTTTCTGTTCAAGCGCCATCTAC | 1.14 RPM ratio (pull-down/input) |
| GATGATTGTTCTCCCAGCTGATGAATTCGCCGTGTCGAGTAAACAAATTTTCCTAATCTTTCTGTTCAAGCGCCATCTAC | 0.828 RPM ratio (pull-down/input) |
| GATGATTGTTCTCCCAGCTGATGAATTCGGCATTTCGAGTAAACAAATTTTCCTAATCTTTCTGTTCAAGCGCCATCTAC | 0.93 RPM ratio (pull-down/input) |
| GATGATTGTTCTCCCAGCTGATGAATTTGTGCCGTCGAGTAAACAAATTTTCCTAATCTTTCTGTTCAAGCGCCATCTAC | 1.05 RPM ratio (pull-down/input) |
| GATGATTGTTCTCCCAGCTGATGAATTATTGCTGTCGAGTAAACAAATTTTCCTAATCTTTCTGTTCAAGCGCCATCTAC | 1.67 RPM ratio (pull-down/input) |

| Sequence | binding signal |
| --- | --- |
| GATGATTGTTCTCCCAGCTGATGAATTAGAACGATCGAGTAAACAAATTTTCCTAATCTTTCTGTTCAAGCGCCATCTAC | 0.879 RPM ratio (pull-down/input) |
| GATGATTGTTCTCCCAGCTGATGAATTAGGCTCGTCGAGTAAACAAATTTTCCTAATCTTTCTGTTCAAGCGCCATCTAC | 0.761 RPM ratio (pull-down/input) |
| GATGATTGTTCTCCCAGCTGATGAATTCACCATTTCGAGTAAACAAATTTTCCTAATCTTTCTGTTCAAGCGCCATCTAC | 0.937 RPM ratio (pull-down/input) |
| GATGATTGTTCTCCCAGCTGATGAATTCTACGTATCGAGTAAACAAATTTTCCTAATCTTTCTGTTCAAGCGCCATCTAC | 1.01 RPM ratio (pull-down/input) |
| GATGATTGTTCTCCCAGCTGATGAATTATCATCTTCGAGTAAACAAATTTTCCTAATCTTTCTGTTCAAGCGCCATCTAC | 1.05 RPM ratio (pull-down/input) |
| GATGATTGTTCTCCCAGCTGATGAATTACATACATCGAGTAAACAAATTTTCCTAATCTTTCTGTTCAAGCGCCATCTAC | 1.5 RPM ratio (pull-down/input) |
| GATGATTGTTCTCCCAGCTGATGAATTATAAGCCTCGAGTAAACAAATTTTCCTAATCTTTCTGTTCAAGCGCCATCTAC | 0.944 RPM ratio (pull-down/input) |
| GATGATTGTTCTCCCAGCTGATGAATTCCCCATTTCGAGTAAACAAATTTTCCTAATCTTTCTGTTCAAGCGCCATCTAC | 0.836 RPM ratio (pull-down/input) |
| GATGATTGTTCTCCCAGCTGATGAATTCCAGGTGTCGAGTAAACAAATTTTCCTAATCTTTCTGTTCAAGCGCCATCTAC | 0.856 RPM ratio (pull-down/input) |
| GATGATTGTTCTCCCAGCTGATGAATTGACCTCGTCGAGTAAACAAATTTTCCTAATCTTTCTGTTCAAGCGCCATCTAC | 0.929 RPM ratio (pull-down/input) |
| GATGATTGTTCTCCCAGCTGATGAATTTCTTGATTCGAGTAAACAAATTTTCCTAATCTTTCTGTTCAAGCGCCATCTAC | 1.01 RPM ratio (pull-down/input) |
| GATGATTGTTCTCCCAGCTGATGAATTGGTCGAATCGAGTAAACAAATTTTCCTAATCTTTCTGTTCAAGCGCCATCTAC | 0.945 RPM ratio (pull-down/input) |
| GATGATTGTTCTCCCAGCTGATGAATTAGAGAACTCGAGTAAACAAATTTTCCTAATCTTTCTGTTCAAGCGCCATCTAC | 0.811 RPM ratio (pull-down/input) |
| GATGATTGTTCTCCCAGCTGATGAATTACCGCGATCGAGTAAACAAATTTTCCTAATCTTTCTGTTCAAGCGCCATCTAC | 0.929 RPM ratio (pull-down/input) |
| GATGATTGTTCTCCCAGCTGATGAATTAAGCTTGTCGAGTAAACAAATTTTCCTAATCTTTCTGTTCAAGCGCCATCTAC | 0.923 RPM ratio (pull-down/input) |
| GATGATTGTTCTCCCAGCTGATGAATTCCCATAATCGAGTAAACAAATTTTCCTAATCTTTCTGTTCAAGCGCCATCTAC | 1.18 RPM ratio (pull-down/input) |
